Results published in paper PMC12820563.
This is one part of the list. The list includes weakly bound sequences.

molecular target: T1, MBP-FoxP3dN (UniProt Q99JB6); assay: PD-seq (MBP pull-down with sequencing); conditions: 20 mM Tris-HCl pH 7.5, 100 mM NaCl, 1.5 mM MgCl2, 0.4 uM protein, 0.1 uM dsDNA library, 30 min, room temperature, amylose pull-down; high values mean tight binding; double strand, one strand shown
T1 sequence: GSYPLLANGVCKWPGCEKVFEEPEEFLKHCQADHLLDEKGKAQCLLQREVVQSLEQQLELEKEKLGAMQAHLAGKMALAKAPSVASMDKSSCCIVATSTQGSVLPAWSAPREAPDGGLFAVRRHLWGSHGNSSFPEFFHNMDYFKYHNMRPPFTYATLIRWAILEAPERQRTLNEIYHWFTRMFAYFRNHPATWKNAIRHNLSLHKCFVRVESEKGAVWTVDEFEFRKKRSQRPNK

“GATGATTGTTCTCCCAGCTGATGAATTACCTAAATCGAGTAAACAAATTTTCCTAATCTTTCTGTTCAAGCGCCATCTAC” was tested. Which binding signal (RPM ratio (pull-down/input)) did it give?
The binding signal (RPM ratio (pull-down/input)) was 0.295.

“GATGATTGTTCTCCCAGCTGATGAATTTAGTGGATCGAGTAAACAAATTTTCCTAATCTTTCTGTTCAAGCGCCATCTAC” was tested. Which binding signal (RPM ratio (pull-down/input)) did it give?
Its binding signal (RPM ratio (pull-down/input)) is 0.779.

With “GATGATTGTTCTCCCAGCTGATGAATTAGCCTACTCGAGTAAACAAATTTTCCTAATCTTTCTGTTCAAGCGCCATCTAC” as the sequence, how does the binding signal (RPM ratio (pull-down/input)) read?
Its binding signal (RPM ratio (pull-down/input)) is 0.473.

How did the binding signal (RPM ratio (pull-down/input)) turn out when “GATGATTGTTCTCCCAGCTGATGAATTCGACCGGTCGAGTAAACAAATTTTCCTAATCTTTCTGTTCAAGCGCCATCTAC” was run?
Its binding signal (RPM ratio (pull-down/input)) is 0.207.

With “GATGATTGTTCTCCCAGCTGATGAATTTTAGGGGTCGAGTAAACAAATTTTCCTAATCTTTCTGTTCAAGCGCCATCTAC” as the sequence, how does the binding signal (RPM ratio (pull-down/input)) read?
Its binding signal (RPM ratio (pull-down/input)) is 0.306.

Which binding signal (RPM ratio (pull-down/input)) does the source give for “GATGATTGTTCTCCCAGCTGATGAATTTCCGTGCTCGAGTAAACAAATTTTCCTAATCTTTCTGTTCAAGCGCCATCTAC” here?
Its binding signal (RPM ratio (pull-down/input)) is 0.332.

Which binding signal (RPM ratio (pull-down/input)) does the source give for “GATGATTGTTCTCCCAGCTGATGAATTCACCTTTTCGAGTAAACAAATTTTCCTAATCTTTCTGTTCAAGCGCCATCTAC” here?
The binding signal (RPM ratio (pull-down/input)) was 0.312.

Which binding signal (RPM ratio (pull-down/input)) does the source give for “GATGATTGTTCTCCCAGCTGATGAATTGGTACCGTCGAGTAAACAAATTTTCCTAATCTTTCTGTTCAAGCGCCATCTAC” here?
The binding signal (RPM ratio (pull-down/input)) was 0.466.

For “GATGATTGTTCTCCCAGCTGATGAATTGTCTAAGTCGAGTAAACAAATTTTCCTAATCTTTCTGTTCAAGCGCCATCTAC”, which binding signal (RPM ratio (pull-down/input)) is on record?
Its binding signal (RPM ratio (pull-down/input)) is 0.302.

How did the binding signal (RPM ratio (pull-down/input)) turn out when “GATGATTGTTCTCCCAGCTGATGAATTTTAAGTGTCGAGTAAACAAATTTTCCTAATCTTTCTGTTCAAGCGCCATCTAC” was run?
The binding signal (RPM ratio (pull-down/input)) was 0.523.

For “GATGATTGTTCTCCCAGCTGATGAATTCGGCAAATCGAGTAAACAAATTTTCCTAATCTTTCTGTTCAAGCGCCATCTAC”, which binding signal (RPM ratio (pull-down/input)) is on record?
The binding signal (RPM ratio (pull-down/input)) was 0.528.

How did the binding signal (RPM ratio (pull-down/input)) turn out when “GATGATTGTTCTCCCAGCTGATGAATTCTGACTATCGAGTAAACAAATTTTCCTAATCTTTCTGTTCAAGCGCCATCTAC” was run?
Its binding signal (RPM ratio (pull-down/input)) is 0.567.

With “GATGATTGTTCTCCCAGCTGATGAATTATCACCATCGAGTAAACAAATTTTCCTAATCTTTCTGTTCAAGCGCCATCTAC” as the sequence, how does the binding signal (RPM ratio (pull-down/input)) read?
Its binding signal (RPM ratio (pull-down/input)) is 0.464.

With “GATGATTGTTCTCCCAGCTGATGAATTCATGAGTTCGAGTAAACAAATTTTCCTAATCTTTCTGTTCAAGCGCCATCTAC” as the sequence, how does the binding signal (RPM ratio (pull-down/input)) read?
Its binding signal (RPM ratio (pull-down/input)) is 0.957.

How did the binding signal (RPM ratio (pull-down/input)) turn out when “GATGATTGTTCTCCCAGCTGATGAATTCAGCCGCTCGAGTAAACAAATTTTCCTAATCTTTCTGTTCAAGCGCCATCTAC” was run?
The binding signal (RPM ratio (pull-down/input)) was 1.04.

How did the binding signal (RPM ratio (pull-down/input)) turn out when “GATGATTGTTCTCCCAGCTGATGAATTCAAGCCATCGAGTAAACAAATTTTCCTAATCTTTCTGTTCAAGCGCCATCTAC” was run?
The binding signal (RPM ratio (pull-down/input)) was 1.14.

For “GATGATTGTTCTCCCAGCTGATGAATTCACCCATTCGAGTAAACAAATTTTCCTAATCTTTCTGTTCAAGCGCCATCTAC”, which binding signal (RPM ratio (pull-down/input)) is on record?
Its binding signal (RPM ratio (pull-down/input)) is 0.317.

How did the binding signal (RPM ratio (pull-down/input)) turn out when “GATGATTGTTCTCCCAGCTGATGAATTGAAAGACTCGAGTAAACAAATTTTCCTAATCTTTCTGTTCAAGCGCCATCTAC” was run?
Its binding signal (RPM ratio (pull-down/input)) is 0.219.

How did the binding signal (RPM ratio (pull-down/input)) turn out when “GATGATTGTTCTCCCAGCTGATGAATTGTCAGGTTCGAGTAAACAAATTTTCCTAATCTTTCTGTTCAAGCGCCATCTAC” was run?
The binding signal (RPM ratio (pull-down/input)) was 0.338.

“GATGATTGTTCTCCCAGCTGATGAATTCAGACTCTCGAGTAAACAAATTTTCCTAATCTTTCTGTTCAAGCGCCATCTAC” was tested. Which binding signal (RPM ratio (pull-down/input)) did it give?
The binding signal (RPM ratio (pull-down/input)) was 1.33.

With “GATGATTGTTCTCCCAGCTGATGAATTTCGTCACTCGAGTAAACAAATTTTCCTAATCTTTCTGTTCAAGCGCCATCTAC” as the sequence, how does the binding signal (RPM ratio (pull-down/input)) read?
The binding signal (RPM ratio (pull-down/input)) was 1.6.

Which binding signal (RPM ratio (pull-down/input)) does the source give for “GATGATTGTTCTCCCAGCTGATGAATTAGTCGTATCGAGTAAACAAATTTTCCTAATCTTTCTGTTCAAGCGCCATCTAC” here?
Its binding signal (RPM ratio (pull-down/input)) is 1.35.

For “GATGATTGTTCTCCCAGCTGATGAATTCAAGCTATCGAGTAAACAAATTTTCCTAATCTTTCTGTTCAAGCGCCATCTAC”, which binding signal (RPM ratio (pull-down/input)) is on record?
The binding signal (RPM ratio (pull-down/input)) was 0.713.

For “GATGATTGTTCTCCCAGCTGATGAATTATTAGCTTCGAGTAAACAAATTTTCCTAATCTTTCTGTTCAAGCGCCATCTAC”, which binding signal (RPM ratio (pull-down/input)) is on record?
The binding signal (RPM ratio (pull-down/input)) was 0.671.

“GATGATTGTTCTCCCAGCTGATGAATTGAAAGAGTCGAGTAAACAAATTTTCCTAATCTTTCTGTTCAAGCGCCATCTAC” was tested. Which binding signal (RPM ratio (pull-down/input)) did it give?
The binding signal (RPM ratio (pull-down/input)) was 0.192.

With “GATGATTGTTCTCCCAGCTGATGAATTAAGAAGCTCGAGTAAACAAATTTTCCTAATCTTTCTGTTCAAGCGCCATCTAC” as the sequence, how does the binding signal (RPM ratio (pull-down/input)) read?
Its binding signal (RPM ratio (pull-down/input)) is 0.24.

How did the binding signal (RPM ratio (pull-down/input)) turn out when “GATGATTGTTCTCCCAGCTGATGAATTTGATGTCTCGAGTAAACAAATTTTCCTAATCTTTCTGTTCAAGCGCCATCTAC” was run?
The binding signal (RPM ratio (pull-down/input)) was 5.34.

“GATGATTGTTCTCCCAGCTGATGAATTGAATTACTCGAGTAAACAAATTTTCCTAATCTTTCTGTTCAAGCGCCATCTAC” was tested. Which binding signal (RPM ratio (pull-down/input)) did it give?
The binding signal (RPM ratio (pull-down/input)) was 1.28.

“GATGATTGTTCTCCCAGCTGATGAATTCATTTTCTCGAGTAAACAAATTTTCCTAATCTTTCTGTTCAAGCGCCATCTAC” was tested. Which binding signal (RPM ratio (pull-down/input)) did it give?
Its binding signal (RPM ratio (pull-down/input)) is 1.42.

“GATGATTGTTCTCCCAGCTGATGAATTCCTCAGGTCGAGTAAACAAATTTTCCTAATCTTTCTGTTCAAGCGCCATCTAC” was tested. Which binding signal (RPM ratio (pull-down/input)) did it give?
Its binding signal (RPM ratio (pull-down/input)) is 0.177.

With “GATGATTGTTCTCCCAGCTGATGAATTTACATGATCGAGTAAACAAATTTTCCTAATCTTTCTGTTCAAGCGCCATCTAC” as the sequence, how does the binding signal (RPM ratio (pull-down/input)) read?
The binding signal (RPM ratio (pull-down/input)) was 0.589.
